Data taken from the supplement of paper PMC11055344.
MIC of nasopharyngeal S. pneumoniae isolates by broth microdilution (range and time not stated); higher = less susceptible. No active / inactive call per row; the paper counts penicillin above 0.06 and amoxicillin above 0.5 mg/L as non-susceptible (EUCAST). The lowest value, 0.01, is taken as the floor ('<='); the source prints it plain. Penicillin G is assumed for 'penicillin'. Isolates are numbered anew. PBP alleles are the type numbers of penicillin-binding proteins 1a, 2b and 2x; equal numbers mean equal sequences.

Columns and labels:
penicillin G = compound: CC1(C)S[C@@H]2[C@H](NC(=O)Cc3ccccc3)C(=O)N2[C@H]1C(=O)O [penicillin G]; experiment: Broth microdilution.
amoxicillin = compound: CC1(C)S[C@@H]2[C@H](NC(=O)[C@H](N)c3ccc(O)cc3)C(=O)N2[C@H]1C(=O)O [amoxicillin]; experiment: Broth microdilution.

| Test System | MIC (penicillin G) [µg/mL] | MIC (amoxicillin) [µg/mL] |
| --- | --- | --- |
| Streptococcus pneumoniae isolate 119 (PBP alleles 1a 2b 2x: 2_0_2, serotype: 15B/C) | 0.03 | ≤ 0.01 |
| Streptococcus pneumoniae isolate 120 (PBP alleles 1a 2b 2x: 7_67_1, serotype: 23B1) | 0.125 | 0.03 |
| Streptococcus pneumoniae isolate 121 (PBP alleles 1a 2b 2x: 2_4_0, serotype: 38) | 0.03 | 0.03 |
| Streptococcus pneumoniae isolate 122 (PBP alleles 1a 2b 2x: 0_0_0, serotype: 15B/C) | 0.03 | 0.03 |
| Streptococcus pneumoniae isolate 123 (PBP alleles 1a 2b 2x: 2_0_2, serotype: 21) | 0.03 | 0.03 |
| Streptococcus pneumoniae isolate 124 (PBP alleles 1a 2b 2x: 2_0_6, serotype: 23A) | 0.03 | 0.03 |
| Streptococcus pneumoniae isolate 125 (PBP alleles 1a 2b 2x: 2_3_2, serotype: 3) | 0.03 | 0.03 |
| Streptococcus pneumoniae isolate 126 (PBP alleles 1a 2b 2x: 0_0_0, serotype: 15B/C) | ≤ 0.01 | ≤ 0.01 |
| Streptococcus pneumoniae isolate 127 (PBP alleles 1a 2b 2x: 2_6_0, serotype: 11A) | ≤ 0.01 | ≤ 0.01 |
| Streptococcus pneumoniae isolate 128 (PBP alleles 1a 2b 2x: 7_67_1, serotype: 23B1) | 0.25 | 0.125 |
| Streptococcus pneumoniae isolate 129 (PBP alleles 1a 2b 2x: 2_6_0, serotype: 11A) | 0.03 | ≤ 0.01 |
| Streptococcus pneumoniae isolate 130 (PBP alleles 1a 2b 2x: 1_0_0, serotype: 15A) | ≤ 0.01 | ≤ 0.01 |
| Streptococcus pneumoniae isolate 131 (PBP alleles 1a 2b 2x: 0_0_2, serotype: 10A) | 0.03 | ≤ 0.01 |
| Streptococcus pneumoniae isolate 132 (PBP alleles 1a 2b 2x: 2_0_2, serotype: 21) | 0.03 | 0.03 |
| Streptococcus pneumoniae isolate 133 (PBP alleles 1a 2b 2x: 2_4_0, serotype: 38) | 0.03 | 0.03 |
| Streptococcus pneumoniae isolate 134 (PBP alleles 1a 2b 2x: 0_0_New, serotype: 35B) | 0.06 | 0.06 |
| Streptococcus pneumoniae isolate 135 (PBP alleles 1a 2b 2x: 24_27_28, serotype: 15A) | 0.25 | 0.25 |
| Streptococcus pneumoniae isolate 136 (PBP alleles 1a 2b 2x: 55_60_43, serotype: Non-typeable/NCC2a) | 0.125 | 0.125 |
| Streptococcus pneumoniae isolate 137 (PBP alleles 1a 2b 2x: 1_0_0, serotype: 15A) | ≤ 0.01 | ≤ 0.01 |
| Streptococcus pneumoniae isolate 138 (PBP alleles 1a 2b 2x: 2_0_2, serotype: 15B/C) | 0.03 | 0.03 |
| Streptococcus pneumoniae isolate 139 (PBP alleles 1a 2b 2x: 0_0_0, serotype: 15B/C) | 0.03 | 0.03 |
| Streptococcus pneumoniae isolate 140 (PBP alleles 1a 2b 2x: 25_69_56, serotype: Non-typeable/NCC2b) | 0.5 | 1 |
| Streptococcus pneumoniae isolate 141 (PBP alleles 1a 2b 2x: 12_0_0, serotype: 31) | 0.03 | 0.03 |
